Data from PubChem BioAssay AID1963576 (National Center for Advancing Translational Sciences (NCATS), 2024).
The whole screen tested about 46,000 compounds, of which about 60 (0.1%) were called active. About 3% were inconclusive and are not listed. The call rests on the fitted dose curve; in most records, active means well fitted inhibition curve with a large enough effect; inconclusive means small, poorly fitted or top-dose-only effect; inactive means no such curve, though single readings can be large or run the other way. The list shows a part of the results.

Experiment: Primary qHTS assay for Inhibitors of ovarian cancer metastasis using an organotypic tumor microenvironment (TME) model. Further: nearly all actives have a fitted effect of over 65% in size.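 On activity change, negative = inhibition: plate controls were DMSO wells for no effect and tomatine positive control wells for full effect.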
Conditions: SKOV3ip1-GFP adhesion/invasion on 3D omental model, fluorescence; series mostly up to 45.8 µM; activity change, negative = inhibition: at the top concentration
How it was run: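 qHTS, 4-pt dose (0.36-46 umol/L); SKOV3ip1-GFP, 1,200 cells/well, no FBS; primary omental fibroblast/mesothelial co-culture 48 h pre-grown; 2 h RT + 16 h 37 C; PBS wash, 4% PFA; GFP count 488/509 nm.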

SMILES | activity change, negative = inhibition | outcome
Cc1cccc(C(c2sc3nc(-c4ccco4)nn3c2O)N2CCN(Cc3ccccc3)CC2)c1 (stereo unspecified) | inactive: 1.17% | –
COc1ccccc1-c1nnc(C2CCN(C(=O)c3cccc(Cl)c3)CC2)o1 | inactive: 2.52% | –
COc1cc(C2CC(=O)c3c([nH]c(C(=O)OCc4ccc(C)cc4)c3C)C2)cc(OC)c1OC (stereo unspecified) | – | inactive
Cc1ccc(NC(=O)/C=C/c2ccc(Cl)cc2)c(Br)c1 | – | inactive
CCS(=O)(=O)N1CCc2cc(C(=O)NCc3ccc(Cl)cc3)ccc21 | – | inactive
Cc1ccccc1NC(=O)Cn1c(=O)n(CCCCCC(=O)NCc2ccccc2Cl)c(=O)c2sccc21 | inactive: -25.8% | –
CN(C)c1ccc(CNC(=O)c2cnc3sc(N4CCCC4)nn3c2=O)cc1 | – | inactive
COCCCNC(=O)c1[nH]c2ccccc2c1Sc1ccc(C)cc1 | inactive: 15.7% | –
CC(=O)c1cccc(NC(=O)CSc2nnc3ccc(-c4ccc(F)cc4)nn23)c1 | – | inactive
COc1ccc(NC(=O)c2ccc3c(SCC(=O)O)c4c(nc3c2)CCCC4)cc1OC | inactive: -14.8% | –
CCCOc1ccc(C(=O)Nc2ccc3oc(-c4ccc5ccccc5c4)nc3c2)cc1 | inactive: 1.91% | –
O=C(Cc1ccccc1)N(Cc1cccnc1)c1nc2ccc(Cl)cc2s1 | – | inactive
CCOC(=O)c1ccccc1NC(=O)Cn1c(=O)n(CCC(=O)NCc2ccccc2OC)c(=O)c2ccccc21 | – | inactive
Cn1c(=O)c2c(nc(Oc3ccc(C#N)cc3)n2Cc2ccc(Cl)cc2Cl)n(C)c1=O | inactive: -1.23% | –
Cc1sc2ncn(CC(=O)Nc3ccc(F)cc3Cl)c(=O)c2c1S(=O)(=O)N1CCN(c2ncccn2)CC1 | – | inactive
O=C(Nc1ccc(Br)cc1F)c1cc(S(=O)(=O)NC2CCCC2)ccc1F | inactive: 8.54% | –
CCOC(=O)c1cccc(-n2nnc3c(sc4nc(C)c(Br)c(C)c43)c2=O)c1 | inactive: -37.9% | –
O=C(NCCc1ccccc1)c1cc(-c2ccc(Br)cc2)on1 | inactive: 7.8% | –
CCOC(=O)c1c(C)oc2ncnc(N3CCN(c4ccc(C)cc4C)CC3)c12 | – | inactive
CCCCN(Cc1cccs1)S(=O)(=O)c1cc(-c2cc(C)no2)ccc1C | – | inactive
CCN1CCN(c2csc3ccc(F)cc3c2=O)CC1 | inactive: 2.04% | –

SMILES | activity change, negative = inhibition | outcome
COc1ccc(-c2nc3scc(CCNS(=O)(=O)c4c(C)noc4C)n3n2)cc1OC | – | inactive
CCOC(=O)c1c(S(=O)(=O)NCC(=O)N2CCN(c3cccc(Cl)c3)CC2)c(C)n(C)c1C | inactive: 6.85% | –
COc1cccc(CNC(=O)c2[nH]c3cc(C)ccc3c2Sc2ccccc2)c1 | inactive: 0.487% | –
Cc1cccn2c(=O)cc(CSc3nnc(NC(=O)COc4ccc(F)cc4)s3)nc12 | inactive: -8.07% | –
O=C1CCc2cc(S(=O)(=O)NCc3ccc(Cl)cc3)cc3c2N1CC3 | inactive: 22.1% | –
COc1cccc(-c2nnc(-c3cc4cc(Cl)ccc4oc3=O)o2)c1 | inactive: 14.8% | –
Cc1cccc(NC(=O)CSc2nnc3scc(-c4ccccc4)n23)c1 | inactive: 2.71% | –
COc1ccccc1NC(=O)c1oc2ccccc2c1NC(=O)C(C)C | inactive: 7.77% | –
O=C(Nc1ccc(Cl)c(C(F)(F)F)c1)C1CCCN(S(=O)(=O)c2cccc3cccnc23)C1 (stereo unspecified) | – | inactive
CC(C)(C)c1ccc(CSc2nc3c(c(=O)[nH]2)CCCC3)cc1 | inactive: -3.18% | –
Cc1ccccc1CNC(=O)c1ccccc1NC(=O)c1nsc2ccccc12 | inactive: -14.6% | –
CC1CCN(S(=O)(=O)c2ccc3c(c2)c(=O)c(C(=O)NCc2ccc(Cl)cc2)cn3C)CC1 | inactive: -4.85% | –
O=c1c(N2CCN(c3cccc(C(F)(F)F)c3)CC2)csc2ccccc12 | – | inactive
COc1ccccc1NC(=O)Cn1cnc2c(nc3n2CCCCC3)c1=O | – | inactive
CCC1CCC(C(=O)NC(C(=O)NCCN(CC(C)C)CC(C)C)C(C)C)CC1 (stereo unspecified) | inactive: 4.87% | –
COc1cc(-c2noc(CSc3nc(-c4ccc(F)cc4)cc(=O)[nH]3)n2)cc(OC)c1OC | inactive: 12.6% | –
Cc1ccc(CNC(=O)C2CCN(C(=O)c3ccc(-n4ccc5ccccc54)s3)CC2)cc1 | – | inactive
CCOC(=O)CC(NC(=O)CCc1c(C)nc2c(-c3ccccc3)c(C)nn2c1C)c1ccc(C)cc1 (stereo unspecified) | inactive: 32.9% | –
COc1ccc(-c2c3c(=O)n(C)c(=O)n(C)c3cn2-c2cccc(N)c2)cc1 | inactive: -5.21% | –
COc1ccc(-c2cn3c(n2)sc2cc(C(=O)NCc4cccs4)ccc23)cc1 | – | inactive
COc1cccc(CN2C(=O)N(c3ccc(C)cc3)C(=O)C2CC(=O)Nc2cc(OC)cc(OC)c2)c1 (stereo unspecified) | inactive: 6.16% | –

SMILES | activity change, negative = inhibition | outcome
CCOc1ccc(Nc2c(S(=O)(=O)c3ccc(Cl)cc3)cnc3ccc(OC)cc23)cc1 | inactive: 10.7% | –
Cc1ccc(-n2nnc(-c3nsc(NC(=O)c4ccccc4C)n3)c2C)cc1Cl | inactive: 0.319% | –
O=C(Nc1ccc(F)cc1)N1CCN(c2ccc3nnc(-c4ccc(F)cc4)n3n2)CC1 | inactive: 12.7% | –
COCCCNC(=O)c1[nH]c2cc(OC)ccc2c1Sc1ccc(C)cc1 | inactive: 0.485% | –
CCn1cc(C(=O)NCCc2ccc(Cl)cc2)c(=O)c2cc(S(=O)(=O)N3CCc4ccccc4C3)ccc21 | – | inactive
COc1ccc(Cn2ccc3nc(C)c(C(=O)Nc4ccc(F)cc4)cc3c2=O)cc1 | inactive: 3.84% | –
Cc1nn(-c2ccccc2)c2c1N(CC(=O)NCc1ccc(N(C)C)cc1)C(=O)CS2 | inactive: 7.38% | –
Cc1cccc(NC(=O)c2cc3c(=O)n(Cc4ccco4)ccc3nc2C)c1 | inactive: -0.8% | –
O=C(Nc1nnc(SCc2cc(=O)c3ccccc3[nH]2)s1)c1ccccc1 | inactive: -4.2% | –
Fc1ccc(-c2nc(-c3cccs3)c(-c3cccs3)[nH]2)cc1 | inactive: 0.147% | –
Cc1cccc(NC(=O)CSc2nc3ccc(NC(=O)COc4ccc(Cl)cc4)cc3s2)c1 | inactive: -15.2% | –
Cc1c(NC(=O)Cc2ccc(F)cc2)cccc1-c1nc2cccnc2s1 | inactive: -17.6% | –
Cc1ccc(N(Cc2cccs2)C(=O)c2ccccc2)cc1 | – | inactive
O=C(NCCn1cc(SCc2cccc(F)c2)c2ccccc21)c1cccc(C(F)(F)F)c1 | inactive: 0.613% | –
CCOC(=O)c1cc(-c2ccccc2)n(CCC(=O)Nc2ccc(C(F)(F)F)cc2)c1C | – | inactive
CN(c1ncnc2c1c(-c1ccccc1)cn2-c1ccc(F)cc1)C1CCCCC1 | – | inactive
CCC(=O)N1CCc2cc(S(=O)(=O)CCC(=O)N3CCN(c4ccccc4Cl)CC3)ccc21 | – | inactive
Cc1ccc2cc3cc(C(=O)N4CCN(c5cccc(C(F)(F)F)c5)CC4)sc3nc2c1 | – | inactive
O=C(NCCOCCO)C(=O)Nc1c2c(nn1-c1ccc(F)cc1)CSC2 | inactive: 9.27% | –
